Measured values as given in the supplement of paper PMC8728848.
Some of the results follow.

What was measured:
Test in all cases: glycan array binding signal (z-score within array); higher = stronger binding
Conditions in all cases: glycan notation: IUPAC condensed, linker removed
Fuc(a1-2)Gal = biological target: Fuc(a1-2)Gal
How it was run: (§1)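 Arrays were curated from the Consortium for Functional Glycomics database, 3228 in total, and kept only where the protein sequence was available. Binding is expressed as a within-array Z-score. This score was averaged across arrays of the same protein sequence at different concentrations or buffers and across linkers, and negative values can be read as non-binding.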

Fuc(a1-2)Gal(b1-3)GalNAc = biological target: Fuc(a1-2)Gal(b1-3)GalNAc
How it was run: as §1

[1] = biological target: Fuc(a1-2)Gal(b1-3)GalNAc(a1-3)[Fuc(a1-2)]Gal(b1-4)Glc
How it was run: as §1

[2] = biological target: Fuc(a1-2)Gal(b1-3)GalNAc(a1-3)[Fuc(a1-2)]Gal(b1-4)GlcNAc
How it was run: as §1

[3] = biological target: Fuc(a1-2)Gal(b1-3)GalNAc(b1-3)Gal
How it was run: as §1

[4] = biological target: Fuc(a1-2)Gal(b1-3)GalNAc(b1-3)Gal(a1-4)Gal(b1-4)Glc
How it was run: as §1

[5] = biological target: Fuc(a1-2)Gal(b1-3)GalNAc(b1-4)[Neu5Ac(a2-3)]Gal(b1-4)Glc
How it was run: as §1

Fuc(a1-2)Gal(b1-3)GlcNAc = biological target: Fuc(a1-2)Gal(b1-3)GlcNAc
How it was run: as §1

[6] = biological target: Fuc(a1-2)Gal(b1-3)GlcNAc(b1-2)Man(a1-3)[Fuc(a1-2)Gal(b1-3)GlcNAc(b1-2)Man(a1-6)]Man(b1-4)GlcNAc(b1-4)GlcNAc
How it was run: as §1

[7] = biological target: Fuc(a1-2)Gal(b1-3)GlcNAc(b1-2)Man(a1-3)[Fuc(a1-2)Gal(b1-3)GlcNAc(b1-2)Man(a1-6)]Man(b1-4)GlcNAc(b1-4)[Fuc(a1-6)]GlcNAc
How it was run: as §1

[8] = biological target: Fuc(a1-2)Gal(b1-3)GlcNAc(b1-3)Gal(b1-4)Glc
How it was run: as §1

[9] = biological target: Fuc(a1-2)Gal(b1-3)GlcNAc(b1-3)GalNAc
How it was run: as §1

[10] = biological target: Fuc(a1-2)Gal(b1-3)GlcNAc(b1-3)[Fuc(a1-2)Gal(b1-3)GlcNAc(b1-6)]GalNAc
How it was run: as §1

[11] = biological target: Fuc(a1-2)Gal(b1-3)GlcNAc(b1-3)[Gal(b1-4)GlcNAc(b1-6)]Gal(b1-4)Glc
How it was run: as §1

[12] = biological target: Fuc(a1-2)Gal(b1-3)GlcNAc(b1-3)[Neu5Ac(a2-6)Gal(b1-4)GlcNAc(b1-6)]Gal(b1-4)Glc
How it was run: as §1

[13] = biological target: Fuc(a1-2)Gal(b1-3)GlcNAc6S
How it was run: as §1

[14] = biological target: Fuc(a1-2)Gal(b1-3)[Fuc(a1-4)]GlcNAc
How it was run: as §1

[15] = biological target: Fuc(a1-2)Gal(b1-3)[Fuc(a1-4)]GlcNAc(b1-2)Man(a1-3)[Fuc(a1-2)Gal(b1-3)[Fuc(a1-4)]GlcNAc(b1-2)Man(a1-3)]Man(b1-4)GlcNAc(b1-4)GlcNAc
How it was run: as §1

[16] = biological target: Fuc(a1-2)Gal(b1-3)[Fuc(a1-4)]GlcNAc(b1-2)Man(a1-3)[Fuc(a1-2)Gal(b1-3)[Fuc(a1-4)]GlcNAc(b1-2)Man(a1-6)]Man(b1-4)GlcNAc(b1-4)[Fuc(a1-6)]GlcNAc(b1-4)[Fuc(a1-6)]GlcNAc
How it was run: as §1

[17] = biological target: Fuc(a1-2)Gal(b1-3)[Fuc(a1-4)]GlcNAc(b1-3)[Fuc(a1-3)[Gal(b1-4)]GlcNAc(b1-6)]Gal(b1-4)Glc
How it was run: as §1

[18] = biological target: Fuc(a1-2)Gal(b1-3)[Fuc(a1-4)]GlcNAc(b1-3)[Gal(b1-4)GlcNAc(b1-6)]Gal(b1-4)Glc
How it was run: as §1

[19] = biological target: Fuc(a1-2)Gal(b1-4)Fuc(a1-3)]GlcNAc(b1-2)Man(a1-3)[Fuc(a1-2)Gal(b1-4)[Fuc(a1-3)]GlcNAc(b1-2)Man(a1-6)]Man(b1-4)GlcNAc(b1-4)GlcNAc
How it was run: as §1

Fuc(a1-2)Gal(b1-4)Glc = biological target: Fuc(a1-2)Gal(b1-4)Glc
How it was run: as §1

Fuc(a1-2)Gal(b1-4)Glc6S = biological target: Fuc(a1-2)Gal(b1-4)Glc6S
How it was run: as §1

Fuc(a1-2)Gal(b1-4)GlcNAc = biological target: Fuc(a1-2)Gal(b1-4)GlcNAc
How it was run: as §1

[20] = biological target: Fuc(a1-2)Gal(b1-4)GlcNAc(b1-2)Man
How it was run: as §1

[21] = biological target: Fuc(a1-2)Gal(b1-4)GlcNAc(b1-2)Man(a1-3)[Fuc(a1-2)Gal(b1-4)GlcNAc(b1-2)Man(a1-6)]Man(b1-4)GlcNAc(b1-4)GlcNAc
How it was run: as §1

[22] = biological target: Fuc(a1-2)Gal(b1-4)GlcNAc(b1-2)Man(a1-3)[Fuc(a1-2)Gal(b1-4)GlcNAc(b1-2)Man(a1-6)]Man(b1-4)GlcNAc(b1-4)[Fuc(a1-6)]GlcNAc
How it was run: as §1

[23] = biological target: Fuc(a1-2)Gal(b1-4)GlcNAc(b1-2)[Fuc(a1-2)Gal(b1-4)GlcNAc(b1-4)]Man(a1-3)[Fuc(a1-2)Gal(b1-4)GlcNAc(b1-2)Man(a1-6)]Man(b1-4)GlcNAc(b1-4)GlcNAc
How it was run: as §1

[24] = biological target: Fuc(a1-2)Gal(b1-4)GlcNAc(b1-3)Gal(b1-4)GlcNAc
How it was run: as §1

B1: Di AAL2 (Agrocybe aegerita) (protein)
chain: MTSNVITQDLPIPVASRGFADIVGFGLDGVVIGRNAVNLQPFLAVKNFAQNAGGWLTTKHVRLIADTTGTGKGDIVGFGNAGVYVSVNNGKNTFADPPKMVIANFGYDAGGWRVEKHLRYLADIRKIGRADIIGFGEKGVLVSRNNGGLNFGPATLVLKDFGYDAGGWRLDRHLRFLADVTGNGHLDIVGFGDKHVFISRNNGDGTFAPAKSVIDNFCIDAGGWKIGDHPRFVADLTGDGTADIIGCGKAGCWVALNNGGGVFGQVKLVINDFGTDKGWQAAKHPRFIADLTGNGRGDVVGFGNAGVYVALNNGDGTFQSAKLVLKDFGVQQGWTVSKHRRFVVDLTGDGCADIIGFGEKETLVSYNDGKGNFGPVKALTNDFSFSGGKWAPETTVCWMANLDSSRHPAPAPMTSNVITQDLPIPVASRGFADIVGFGLDGVVIGRNAVNLQPFLAVKNFAQNAGGWLTTKHVRLIADTTGTGKGDIVGFGNAGVYVSVNNGKNTFADPPKMVIANFGYDAGGWRVEKHLRYLADIRKIGRADIIGFGEKGVLVSRNNGGLNFGPATLVLKDFGYDAGGWRLDRHLRFLADVTGNGHLDIVGFGDKHVFISRNNGDGTFAPAKSVIDNFCIDAGGWKIGDHPRFVADLTGDGTADIIGCGKAGCWVALNNGGGVFGQVKLVINDFGTDKGWQAAKHPRFIADLTGNGRGDVVGFGNAGVYVALNNGDGTFQSAKLVLKDFGVQQGWTVSKHRRFVVDLTGDGCADIIGFGEKETLVSYNDGKGNFGPVKALTNDFSFSGGKWAPETTVCWMANLDSSRH
glycan array binding signal (z-score) (Fuc(a1-2)Gal): -0.316 | glycan array binding signal (z-score) (Fuc(a1-2)Gal(b1-3)GalNAc): -0.337 | glycan array binding signal (z-score) [1]: -0.326 | glycan array binding signal (z-score) [2]: -0.31 | glycan array binding signal (z-score) [3]: -0.332 | glycan array binding signal (z-score) [4]: -0.332 | glycan array binding signal (z-score) [5]: -0.317 | glycan array binding signal (z-score) (Fuc(a1-2)Gal(b1-3)GlcNAc): -0.34 | glycan array binding signal (z-score) [6]: -0.288 | glycan array binding signal (z-score) [7]: -0.315 | glycan array binding signal (z-score) [8]: -0.334 | glycan array binding signal (z-score) [9]: -0.312 | glycan array binding signal (z-score) [10]: -0.287 | glycan array binding signal (z-score) [11]: -0.327 | glycan array binding signal (z-score) [12]: -0.337 | glycan array binding signal (z-score) [13]: -0.299 | glycan array binding signal (z-score) [14]: -0.34 | glycan array binding signal (z-score) [15]: -0.319 | glycan array binding signal (z-score) [16]: -0.293 | glycan array binding signal (z-score) [17]: -0.337 | glycan array binding signal (z-score) [18]: -0.328 | glycan array binding signal (z-score) [19]: -0.035 | glycan array binding signal (z-score) (Fuc(a1-2)Gal(b1-4)Glc): -0.336 | glycan array binding signal (z-score) (Fuc(a1-2)Gal(b1-4)Glc6S): -0.331 | glycan array binding signal (z-score) (Fuc(a1-2)Gal(b1-4)GlcNAc): -0.344 | glycan array binding signal (z-score) [20]: -0.307 | glycan array binding signal (z-score) [21]: -0.322 | glycan array binding signal (z-score) [22]: -0.301 | glycan array binding signal (z-score) [23]: -0.328 | glycan array binding signal (z-score) [24]: -0.337
